# Laboratory results reported in the BET-seq Pho4 binding data (Le et al. 2018).
# Some of the results follow. These are noisy estimates, calculated here from bound and input reads.
# Target: T1, Pho4 (S. cerevisiae) (UniProt P07270)
# T1 sequence: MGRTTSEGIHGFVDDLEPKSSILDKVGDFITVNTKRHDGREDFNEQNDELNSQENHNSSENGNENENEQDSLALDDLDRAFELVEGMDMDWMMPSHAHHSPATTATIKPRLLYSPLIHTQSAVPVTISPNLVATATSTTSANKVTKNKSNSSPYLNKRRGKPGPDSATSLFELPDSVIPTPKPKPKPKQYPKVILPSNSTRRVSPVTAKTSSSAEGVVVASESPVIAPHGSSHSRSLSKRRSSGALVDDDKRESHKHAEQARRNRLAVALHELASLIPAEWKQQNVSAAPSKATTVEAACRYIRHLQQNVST
# Test: relative binding free energy (BET-seq); higher = weaker binding
# Settings: reference: library average
row,Sequence,relative binding free energy [kcal/mol]
1,TTAAGCACGTGGTAAA,-0.2
2,TGGTGCACGTGGTCGA,-0.24
3,CGGGTCACGTGTAGTT,0.15
4,CGGGTCACGTGCGGGG,0.11
5,GGGAGCACGTGGTATT,-0.03
6,GGAGACACGTGCGCGG,-0.15
7,GTTTTCACGTGTTCAG,0.29
8,GAGCACACGTGGGGGT,0.06
9,GGTTGCACGTGAGGAC,0.4
10,ACTGGCACGTGTGGTG,-0.08
11,AGTGCCACGTGGGTGT,-0.25
12,AGGGACACGTGTGGAG,0.08
13,GGCGGCACGTGGTGAG,-0.08
14,AGGGACACGTGATCGG,0.03
15,TGTCGCACGTGGAAAG,0.04
16,TCGTGCACGTGATATG,-0.07
17,TGTCTCACGTGGCTGT,-0.04
18,CTGGTCACGTGGGCGT,-0.07
19,AGGGACACGTGGGAGG,-0.1
20,GGTTACACGTGGCGTA,0.12
21,AGTGGCACGTGTTGTA,-0.12
22,GGTCACACGTGGAAGG,0.31
23,ATGGTCACGTGCATAG,0.06
24,GGTGGCACGTGTTGAA,-0.05
25,ATTTACACGTGGTGAT,-0.08

row,Sequence,relative binding free energy [kcal/mol]
1,TGCTACACGTGTAGTA,0.09
2,TGCAGCACGTGGTGTT,-0.2
3,CGCGACACGTGGGTTT,-0.01
4,GCTGGCACGTGTTGAT,-0.03
5,GTAGGCACGTGTGAAT,0.11
6,GATAGCACGTGTTGGA,0.08
7,AGTATCACGTGTTGGA,0.23
8,TCGATCACGTGTGTAT,0.35
9,ATGGTCACGTGTGTTC,0.15
10,TTTGACACGTGATCTA,0.19
11,CTGGACACGTGGGTTT,0.02
12,AGTATCACGTGATTTA,0.34
13,GGTAGCACGTGATTCT,0.12
14,GGAGTCACGTGGTAGT,0.17
15,TATTGCACGTGTGCCG,0.07
16,ATGTGCACGTGGTGAC,-0.03
17,TCGGGCACGTGTGAGT,-0.08
18,TATTTCACGTGCTAAG,0.16
19,ACTGTCACGTGATGTA,0.27
20,GGTCGCACGTGGGGAG,-0.11
21,CTGAACACGTGGTTGT,-0.11
22,CAAATCACGTGTGGGG,0.12
23,AATTTCACGTGATGAG,0.41
24,TAAATCACGTGTATTG,0.04
25,AAGTGCACGTGTATTT,0.05

row,Sequence,relative binding free energy [kcal/mol]
1,AGTGCCACGTGGGTTG,-0.29
2,GTTCACACGTGATGGT,0.3
3,CATTTCACGTGATTTG,0.42
4,TACCGCACGTGGTTTT,-0.09
5,AGATTCACGTGTATAG,0.16
6,CGCTTCACGTGGGGGT,0.12
7,TAAGTCACGTGGGTAG,0.15
8,AGTCTCACGTGGTTGT,0.13
9,TAATACACGTGTGGCG,0.18
10,GTGGACACGTGTGACG,0.21
11,AGTGGCACGTGTAATG,-0.05
12,ATTTTCACGTGTAGAA,0.17
13,GTCTTCACGTGGTAAT,0.36
14,GTTTGCACGTGGGGTC,-0.05
15,GGGTTCACGTGGTAGG,0.4
16,GAAGACACGTGGGGGT,-0.06
17,TAGGGCACGTGTGGGA,0.01
18,TCATTCACGTGGCTTG,0.19
19,GTGAACACGTGAGTAT,0.1
20,ATGGGCACGTGAGTGC,0.09
21,TATCGCACGTGAAGTG,0.07
22,GCCGGCACGTGGGTAG,-0.15
23,ATGCACACGTGAGGTA,0.22
24,TGGTGCACGTGTGCGG,0.06
25,GGGGCCACGTGTTGGG,0.05

row,Sequence,relative binding free energy [kcal/mol]
1,TGAAGCACGTGGAGTT,-0.1
2,TAGAGCACGTGTGGGT,-0.09
3,GGGATCACGTGTGCTT,0.23
4,ATGGTCACGTGACTGT,0.16
5,GTTGTCACGTGACTGG,0.24
6,GAAGACACGTGTTTGG,-0.03
7,TGTTACACGTGTAGGT,0.15
8,TCTGTCACGTGTATTA,0.01
9,GGAGACACGTGAGGAT,0.36
10,GAGATCACGTGGCTTG,0.19
11,GATGCCACGTGTTTGT,0.01
12,CGGGACACGTGAGGAG,0.23
13,TCGGGCACGTGCTTTG,-0.19
14,TATCGCACGTGGTGAG,-0.04
15,GAGGGCACGTGCAGAG,-0.08
16,GTGTGCACGTGTAGAT,0.17
17,GCGTGCACGTGGAGGC,-0.03
18,CGGTGCACGTGGTTTC,0.06
19,TGCAGCACGTGGCGGT,-0.19
20,ATAGACACGTGAAGGG,0.3
21,GTGGTCACGTGACTAG,0.2
22,ATGAGCACGTGTCGTT,-0.11
23,TTGGCCACGTGGGTCT,-0.2
24,TGTATCACGTGTGCGA,0.21
25,CGTGGCACGTGAGATA,0.14

row,Sequence,relative binding free energy [kcal/mol]
1,AGCTTCACGTGGATAG,0.3
2,TTGGCCACGTGTGTGC,0
3,AGGAGCACGTGAAGTT,-0.01
4,GGGGGCACGTGTTCTG,0.01
5,CGCTTCACGTGGTGGT,0.22
6,TAACGCACGTGTGAGT,-0.08
7,GGGGGCACGTGGGTAT,-0.13
8,GGTTTCACGTGTATCT,0.3
9,AGAGTCACGTGTTTGC,0.16
10,TGTGTCACGTGGCGGG,0
11,TTTCGCACGTGGGGGT,-0.21
12,GTAGGCACGTGGTGAG,-0.07
13,GGCTTCACGTGGTAGG,0.26
14,AAGTACACGTGTGGAT,0.13
15,AGTTTCACGTGGTCAT,0.2
16,CGGGTCACGTGAGGCT,0.22
17,GAGGTCACGTGTGGCT,0.23
18,GGACGCACGTGAGGTT,0.16
19,AAGAGCACGTGTTGTT,-0.07
20,GTTTGCACGTGTAAAA,0.27
21,AATAGCACGTGCTGTG,-0.16
22,AATTTCACGTGGGTTC,0.2
23,ATGCGCACGTGATGTT,-0.01
24,GGCGTCACGTGACGGT,0.14
25,AAAATCACGTGTAGGT,0.28

row,Sequence,relative binding free energy [kcal/mol]
1,AGTTACACGTGGTAAG,0.04
2,AAATGCACGTGTAGGA,0.07
3,TGTGTCACGTGGCAGA,-0.03
4,ATATGCACGTGTAAGT,0.11
5,TAGGGCACGTGAGATA,0.09
6,TTATGCACGTGGATAT,-0.06
7,TTGTTCACGTGACGGA,0.34
8,TTATTCACGTGTTAGT,0.37
9,TCCGTCACGTGTTGTA,0.04
10,GGCGGCACGTGGTTCT,0.01
11,TGCTGCACGTGTTGGC,0.02
12,ATATTCACGTGAGAAT,0.3
13,TAGTCCACGTGTGGCT,0.1
14,TTAGCCACGTGTAATT,0.08
15,CTTTGCACGTGTGATA,-0.01
16,TTTTTCACGTGGGAGC,0.29
17,TTTCCCACGTGGGGGT,-0.15
18,TGTTGCACGTGTGCAC,0.01
19,ATGTTCACGTGATGTG,0.33
20,GATAACACGTGTGTGG,0.04
21,TTTTGCACGTGTCAAT,0.01
